From a collection of fitness landscapes (doi:10.1016/j.celrep.2020.107928) come the findings set out here.

B1: Caulobacter ParB omega fusion; a variant is named by its letters at X, in order, B8GW30 (parent)
chain: MESVVVGEPGMSEGRRGLGRGLSALLGEVDAAPAQAPGEQLGGSREAPIEILQRNPDQPRRTFREEDLEDLSNSIREKGVLQPILVRPSPDTAGEYQIVAGERAWRAAQRAGLKTVPIMVRELDDLAVLEIGIIENVQRADLNVLEEALSYKVLMEKFERTQENIAQTIGKSXSHVANXMRLLXLPDEVQSYLVSGELTAXHARAIAAAADPVALAKQIIEGGLSVRETEALARKAPNLSAGKSKGGRPPRVKDTDTQALESDLSSVLGLDVSIDHRGSTGTLTITYATLEQLDDLCNRLTRGI

Whole data set: some 81,000 sequences, median “one-hybrid fitness for binding NBS DNA” near -0.1, cut for the highest 2% near 0.36. Some of the results follow.

The variants in the experiment derive from B1. As to the kind of experiment: one-hybrid fitness for binding NBS DNA (the Noc-binding site; scaled: cognate 1, non-cognate 0); higher = stronger binding. The note with it: with NBS DNA site. The procedure, abridged:
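In E. coli USO, a HIS3 reporter with its site placed 19 bp from the promoter was used to select Caulobacter ParB variants randomised at four specificity codons. Growth lasted 48 hours at 37°C on histidine-free M9 containing 0.1 mM IPTG and 5 mM 3-AT. Fitness was taken as the log change in variant-to-wild-type read ratio from Illumina sequencing of pre- and post-selection plasmids, rescaled between the non-cognate and cognate sites.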
In the case of ENAM, the “one-hybrid fitness for binding NBS DNA” value was at most 0.2.

As to QRVV, the “one-hybrid fitness for binding NBS DNA” value amounted to 0.272.

Consider RTWN, for which the “one-hybrid fitness for binding NBS DNA” value was at most 0.2.

As for CMKR, the “one-hybrid fitness for binding NBS DNA” value was at most 0.2.

Regarding MWFS, the “one-hybrid fitness for binding NBS DNA” value was at most 0.2.

Regarding YCKV, the “one-hybrid fitness for binding NBS DNA” value was at most 0.2.

Take AQVS: the “one-hybrid fitness for binding NBS DNA” value was at most 0.2.

Take CLYV: the “one-hybrid fitness for binding NBS DNA” value was at most 0.2.

On to THDK, for which the “one-hybrid fitness for binding NBS DNA” value was at most 0.2.

LNWW: the “one-hybrid fitness for binding NBS DNA” value was at most 0.2.

Consider HQLR, for which the “one-hybrid fitness for binding NBS DNA” value is at most 0.2.

In the case of RHLI, the “one-hybrid fitness for binding NBS DNA” value is at most 0.2.

Turning to SLIS, the “one-hybrid fitness for binding NBS DNA” value is at most 0.2.

LKGT: the “one-hybrid fitness for binding NBS DNA” value was at most 0.2.

As to QCAI, the “one-hybrid fitness for binding NBS DNA” value was at most 0.2.

With EKAM, the “one-hybrid fitness for binding NBS DNA” value is at most 0.2.

In the case of KPTF, the “one-hybrid fitness for binding NBS DNA” value was at most 0.2.

Consider QISD, for which the “one-hybrid fitness for binding NBS DNA” value is at most 0.2.

As for DDPF, the “one-hybrid fitness for binding NBS DNA” value was at most 0.2.

With QERE, the “one-hybrid fitness for binding NBS DNA” value is at most 0.2.

Consider FGYS, for which the “one-hybrid fitness for binding NBS DNA” value is at most 0.2.

In the case of QRTT, the “one-hybrid fitness for binding NBS DNA” value is 0.759.

As to AWNV, the “one-hybrid fitness for binding NBS DNA” value was at most 0.2.

As for HSEA, the “one-hybrid fitness for binding NBS DNA” value was at most 0.2.

As for PASV, the “one-hybrid fitness for binding NBS DNA” value was at most 0.2.

Consider QDTI, for which the “one-hybrid fitness for binding NBS DNA” value is at most 0.2.

Consider MIAR, for which the “one-hybrid fitness for binding NBS DNA” value is at most 0.2.

With LSRS, the “one-hybrid fitness for binding NBS DNA” value is at most 0.2.

As to AGPE, the “one-hybrid fitness for binding NBS DNA” value is at most 0.2.

Consider NKHI, for which the “one-hybrid fitness for binding NBS DNA” value was at most 0.2.

As to GTDA, the “one-hybrid fitness for binding NBS DNA” value is at most 0.2.

For the variant IYKG, the “one-hybrid fitness for binding NBS DNA” value is at most 0.2.

Regarding GFVS, the “one-hybrid fitness for binding NBS DNA” value was at most 0.2.

Consider DILY, for which the “one-hybrid fitness for binding NBS DNA” value was at most 0.2.

On to VARW, for which the “one-hybrid fitness for binding NBS DNA” value is at most 0.2.

Consider INRS, for which the “one-hybrid fitness for binding NBS DNA” value was at most 0.2.

Take WLKC: the “one-hybrid fitness for binding NBS DNA” value was at most 0.2.

As to RDKT, the “one-hybrid fitness for binding NBS DNA” value is at most 0.2.

As to APLP, the “one-hybrid fitness for binding NBS DNA” value was at most 0.2.

For NTHW, the “one-hybrid fitness for binding NBS DNA” value was at most 0.2.

On to CQGT, for which the “one-hybrid fitness for binding NBS DNA” value was at most 0.2.

As for QTTT, the “one-hybrid fitness for binding NBS DNA” value was determined as 0.603.

As for QAAT, the “one-hybrid fitness for binding NBS DNA” value turned out to be 0.401.

Regarding RNMF, the “one-hybrid fitness for binding NBS DNA” value is at most 0.2.

As to SVHC, the “one-hybrid fitness for binding NBS DNA” value is at most 0.2.

As to LIVG, the “one-hybrid fitness for binding NBS DNA” value was at most 0.2.

In the case of MPMI, the “one-hybrid fitness for binding NBS DNA” value is at most 0.2.

As to KILG, the “one-hybrid fitness for binding NBS DNA” value was at most 0.2.

Consider VFKM, for which the “one-hybrid fitness for binding NBS DNA” value was at most 0.2.

Turning to CLSP, the “one-hybrid fitness for binding NBS DNA” value is at most 0.2.

On to YTVA, for which the “one-hybrid fitness for binding NBS DNA” value was at most 0.2.

As for DRTL, the “one-hybrid fitness for binding NBS DNA” value was at most 0.2.

Regarding PDVI, the “one-hybrid fitness for binding NBS DNA” value was at most 0.2.

On to LPDF, for which the “one-hybrid fitness for binding NBS DNA” value was at most 0.2.

For the variant KGNY, the “one-hybrid fitness for binding NBS DNA” value is at most 0.2.

Take EDSE: the “one-hybrid fitness for binding NBS DNA” value is at most 0.2.

Turning to TPRG, the “one-hybrid fitness for binding NBS DNA” value was at most 0.2.

Turning to CYSS, the “one-hybrid fitness for binding NBS DNA” value was at most 0.2.

In the case of KIER, the “one-hybrid fitness for binding NBS DNA” value is at most 0.2.

Turning to GCTW, the “one-hybrid fitness for binding NBS DNA” value is at most 0.2.

As to CRRF, the “one-hybrid fitness for binding NBS DNA” value was at most 0.2.

As to LWLT, the “one-hybrid fitness for binding NBS DNA” value is at most 0.2.

Take TGRY: the “one-hybrid fitness for binding NBS DNA” value is at most 0.2.

Turning to YWDM, the “one-hybrid fitness for binding NBS DNA” value is at most 0.2.

With NMSY, the “one-hybrid fitness for binding NBS DNA” value is at most 0.2.

With VGLW, the “one-hybrid fitness for binding NBS DNA” value was at most 0.2.

Take TGWG: the “one-hybrid fitness for binding NBS DNA” value is at most 0.2.

On to QDFY, for which the “one-hybrid fitness for binding NBS DNA” value is at most 0.2.

Regarding TPDN, the “one-hybrid fitness for binding NBS DNA” value is at most 0.2.

On to LDDC, for which the “one-hybrid fitness for binding NBS DNA” value is at most 0.2.

As to MILL, the “one-hybrid fitness for binding NBS DNA” value is at most 0.2.

On to LTRD, for which the “one-hybrid fitness for binding NBS DNA” value was at most 0.2.

With TRKR, the “one-hybrid fitness for binding NBS DNA” value turned out to be 0.799.

On to LNTW, for which the “one-hybrid fitness for binding NBS DNA” value is at most 0.2.

Take ISDE: the “one-hybrid fitness for binding NBS DNA” value is at most 0.2.

Consider LFLT, for which the “one-hybrid fitness for binding NBS DNA” value was at most 0.2.

As for AIPK, the “one-hybrid fitness for binding NBS DNA” value is at most 0.2.

Take FKVG: the “one-hybrid fitness for binding NBS DNA” value was at most 0.2.

As to SSDV, the “one-hybrid fitness for binding NBS DNA” value was at most 0.2.

As to ISNN, the “one-hybrid fitness for binding NBS DNA” value was at most 0.2.

Consider SRTA, for which the “one-hybrid fitness for binding NBS DNA” value was at most 0.2.

Regarding IAPL, the “one-hybrid fitness for binding NBS DNA” value was at most 0.2.

With VKSD, the “one-hybrid fitness for binding NBS DNA” value is at most 0.2.

Turning to NMTK, the “one-hybrid fitness for binding NBS DNA” value is at most 0.2.

As to AMNG, the “one-hybrid fitness for binding NBS DNA” value is at most 0.2.

Consider HGSD, for which the “one-hybrid fitness for binding NBS DNA” value is at most 0.2.

With LKTR, the “one-hybrid fitness for binding NBS DNA” value was at most 0.2.

Consider GMNT, for which the “one-hybrid fitness for binding NBS DNA” value is at most 0.2.

Take LNAC: the “one-hybrid fitness for binding NBS DNA” value is at most 0.2.

In the case of RFNK, the “one-hybrid fitness for binding NBS DNA” value was at most 0.2.

Take ECKL: the “one-hybrid fitness for binding NBS DNA” value was at most 0.2.

In the case of PPQY, the “one-hybrid fitness for binding NBS DNA” value is at most 0.2.

Consider YIRC, for which the “one-hybrid fitness for binding NBS DNA” value is at most 0.2.

In the case of QKAW, the “one-hybrid fitness for binding NBS DNA” value was at most 0.2.

Consider IIDW, for which the “one-hybrid fitness for binding NBS DNA” value was at most 0.2.

For the variant DRMI, the “one-hybrid fitness for binding NBS DNA” value was at most 0.2.

Consider QRAH, for which the “one-hybrid fitness for binding NBS DNA” value turned out to be 0.583.

Take LPLE: the “one-hybrid fitness for binding NBS DNA” value was at most 0.2.
